Values marked as one replicate rest on one cluster of the flow cell; about a third of the high ones do not repeat.
These sequences were tested on ATP (assay: switch fluorescence ratio, 500 uM ATP over buffer (Cy3 cluster intensity, sum of 5 cycles each) (fold (ratio)); higher = stronger signal-on switching upon ATP binding; sequences stand for … in TCGTCGGCAGCGTCAGATGTGTATAAGAGACAGTTTTTTTTTTTTTTTTTTTTTTTTT…TC). Conditions: aptamer strand: ATP DNA aptamer (quencher-CACCTGGGGGAGTATTGCGGAGGAAGG + anchor), 100 nM annealed; ATP concentration: 500 uM; one replicate.
In short: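 Per cluster, summed Cy3 intensity from the target cycles was divided by that from the buffer cycles to give the fluorescence ratio, then averaged per switch-domain sequence. Clusters outside 100-1000 RFU were excluded. The Cy3-labelled switching-strand clusters, on a modified Illumina MiSeq flow-cell, were annealed to 100 nM quencher-labelled ATP aptamer and imaged in selection buffer, then after 15 min with 500 uM ATP at 22 °C, for five cycles with NaOH stripping and re-annealing between them.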
Sequence AACCGGAATA has a switch fluorescence ratio of 1.05.
In the case of AACCGGCTG, the switch fluorescence ratio is reported as 1.06.
Sequence AACCGGGCCG has a switch fluorescence ratio of 1.03.
For AACCGTAGCC, the switch fluorescence ratio was 1.47.
AACCTAAACC gave a switch fluorescence ratio of 1.15.
Work on AACCTACAT yielded a switch fluorescence ratio of 1.16.
AACCTAGGGA was tested, and the switch fluorescence ratio was 1.08.
Sequence AACCTAGGGT has a switch fluorescence ratio of 1.07.
Sequence AACCTAGTGG has a switch fluorescence ratio of 1.02.
In the case of AACCTCGGGG, the switch fluorescence ratio is reported as 0.966.
In the case of AACCTGCAAT, the switch fluorescence ratio is reported as 4.98.
AACCTTGCGG was tested, and the switch fluorescence ratio was 1.11.
With AACGAAAATA the switch fluorescence ratio was 0.978.
Work on AACGAAAGGT yielded a switch fluorescence ratio of 1.9.
For AACGAAGAAA, the switch fluorescence ratio was 1.02.
AACGAAGACC gave a switch fluorescence ratio of 1.02.
Work on AACGAATGAG yielded a switch fluorescence ratio of 0.983.
AACGAATTGA showed a switch fluorescence ratio of 1.01.
AACGAGCATG was tested, and the switch fluorescence ratio was 1.03.
For AACGAGGCTC, the switch fluorescence ratio was 0.99.
Work on AACGAGTAA yielded a switch fluorescence ratio of 0.999.
For AACGAGTTCC, the switch fluorescence ratio was 1.04.
AACGAGTTTT was tested, and the switch fluorescence ratio was 1.02.
Sequence AACGCAGT has a switch fluorescence ratio of 0.995.
Work on AACGCCCCGC yielded a switch fluorescence ratio of 1.08.
With AACGCGCCGA the switch fluorescence ratio was 1.09.
AACGCGCGTC showed a switch fluorescence ratio of 1.01.
AACGCTGGAC was tested, and the switch fluorescence ratio was 4.14.
AACGGAGAC showed a switch fluorescence ratio of 1.08.
Sequence AACGGCAAAA has a switch fluorescence ratio of 1.36.
With AACGGCCTTC the switch fluorescence ratio was 1.06.
With AACGGGTGCT the switch fluorescence ratio was 0.999.
In the case of AACGGTTT, the switch fluorescence ratio is reported as 0.971.
AACGTAAGT showed a switch fluorescence ratio of 1.04.
AACGTACCTT was tested, and the switch fluorescence ratio was 1.57.
AACGTGAGTT showed a switch fluorescence ratio of 1.02.
AACGTGTGA gave a switch fluorescence ratio of 1.
In the case of AACGTTGCA, the switch fluorescence ratio is reported as 1.02.
AACGTTTAC showed a switch fluorescence ratio of 1.16.
In the case of AACTAAGGAC, the switch fluorescence ratio is reported as 1.03.
With AACTAATTCT the switch fluorescence ratio was 0.95.
AACTAGATGC was tested, and the switch fluorescence ratio was 1.03.
For AACTAGCACT, the switch fluorescence ratio was 1.04.
AACTAGTTAG showed a switch fluorescence ratio of 1.02.
Work on AACTATACCA yielded a switch fluorescence ratio of 1.21.
AACTATGTCG gave a switch fluorescence ratio of 0.974.
AACTATTACC was tested, and the switch fluorescence ratio was 1.07.
For AACTCATACG, the switch fluorescence ratio was 1.09.
AACTCCGTA gave a switch fluorescence ratio of 1.31.
In the case of AACTCCTGTT, the switch fluorescence ratio is reported as 1.02.
With AACTCGCACG the switch fluorescence ratio was 1.1.
For AACTCGCATT, the switch fluorescence ratio was 1.3.
Sequence AACTCGCGGG has a switch fluorescence ratio of 0.995.
AACTCTACAG gave a switch fluorescence ratio of 1.12.
Work on AACTCTAGG yielded a switch fluorescence ratio of 0.994.
AACTCTGGCG was tested, and the switch fluorescence ratio was 1.02.
In the case of AACTCTGGT, the switch fluorescence ratio is reported as 0.949.
AACTCTGGTG showed a switch fluorescence ratio of 1.17.
In the case of AACTGACCAG, the switch fluorescence ratio is reported as 1.02.
In the case of AACTGTTCC, the switch fluorescence ratio is reported as 1.23.
AACTTAACGT showed a switch fluorescence ratio of 1.09.
For AACTTAATAT, the switch fluorescence ratio was 0.978.
With AACTTATGGC the switch fluorescence ratio was 0.957.
Work on AACTTATTAG yielded a switch fluorescence ratio of 1.03.
For AACTTCTGCT, the switch fluorescence ratio was 1.03.
AACTTGCCGA gave a switch fluorescence ratio of 1.
In the case of AACTTGTAAC, the switch fluorescence ratio is reported as 1.02.
AACTTGTCCA was tested, and the switch fluorescence ratio was 0.986.
Work on AACTTTATTA yielded a switch fluorescence ratio of 1.02.
For AACTTTCGTG, the switch fluorescence ratio was 0.975.
With AAGAAAAAAA the switch fluorescence ratio was 1.02.
AAGAAACACT gave a switch fluorescence ratio of 1.09.
In the case of AAGAAACGAT, the switch fluorescence ratio is reported as 0.994.
AAGAACGATG gave a switch fluorescence ratio of 1.03.
For AAGAACGCTG, the switch fluorescence ratio was 0.948.
Work on AAGAATGGGA yielded a switch fluorescence ratio of 1.01.
Work on AAGACACAGC yielded a switch fluorescence ratio of 1.09.
Sequence AAGACTAAGC has a switch fluorescence ratio of 1.03.
Sequence AAGAGAAACT has a switch fluorescence ratio of 1.03.
AAGAGCTATT gave a switch fluorescence ratio of 0.95.
AAGAGCTTTA was tested, and the switch fluorescence ratio was 0.976.
AAGAGGCCCT gave a switch fluorescence ratio of 0.978.
For AAGAGGTGGT, the switch fluorescence ratio was 0.938.
Work on AAGAGTAAAT yielded a switch fluorescence ratio of 1.02.
For AAGAGTAATC, the switch fluorescence ratio was 1.
AAGAGTAGTA gave a switch fluorescence ratio of 1.01.
AAGATACTTC showed a switch fluorescence ratio of 1.02.
With AAGATAGGCT the switch fluorescence ratio was 1.02.
Sequence AAGATCATTT has a switch fluorescence ratio of 0.996.
AAGATGGAGA was tested, and the switch fluorescence ratio was 1.04.
Sequence AAGATGTCA has a switch fluorescence ratio of 1.01.
AAGATGTGCA gave a switch fluorescence ratio of 0.908.
For AAGATTAGTA, the switch fluorescence ratio was 1.03.
For AAGATTCATG, the switch fluorescence ratio was 0.995.
In the case of AAGATTTAAT, the switch fluorescence ratio is reported as 0.96.
Sequence AAGATTTCGA has a switch fluorescence ratio of 0.923.
AAGATTTGGA was tested, and the switch fluorescence ratio was 1.02.
AAGCAATTTA was tested, and the switch fluorescence ratio was 1.18.
Sequence AAGCATAATG has a switch fluorescence ratio of 1.08.
AAGCATCGTG gave a switch fluorescence ratio of 1.
For AAGCATTTGG, the switch fluorescence ratio was 1.03.
With AAGCCAAGG the switch fluorescence ratio was 0.97.
Work on AAGCCACAGA yielded a switch fluorescence ratio of 1.1.
For AAGCCCAATT, the switch fluorescence ratio was 0.965.
With AAGCCCACGA the switch fluorescence ratio was 1.05.
In the case of AAGCCCGCTG, the switch fluorescence ratio is reported as 1.08.
With AAGCCCGTTT the switch fluorescence ratio was 1.02.
Work on AAGCCCTAGG yielded a switch fluorescence ratio of 1.04.
With AAGCCGATAG the switch fluorescence ratio was 1.03.
AAGCCGGACT gave a switch fluorescence ratio of 1.07.
For AAGCCTACAG, the switch fluorescence ratio was 1.04.
Work on AAGCCTGCAG yielded a switch fluorescence ratio of 1.02.
With AAGCCTTTGT the switch fluorescence ratio was 1.02.
With AAGCGGAATA the switch fluorescence ratio was 1.05.
Sequence AAGCGGCAGG has a switch fluorescence ratio of 0.995.
With AAGCGGCTGA the switch fluorescence ratio was 1.06.
With AAGCGGGTG the switch fluorescence ratio was 1.02.
Sequence AAGCGTAGGG has a switch fluorescence ratio of 0.983.
In the case of AAGCGTGGAG, the switch fluorescence ratio is reported as 1.08.
AAGCGTGGTA was tested, and the switch fluorescence ratio was 0.999.
Work on AAGCGTGTTC yielded a switch fluorescence ratio of 1.05.
With AAGCGTTCCG the switch fluorescence ratio was 1.03.
Work on AAGCTCTAGC yielded a switch fluorescence ratio of 1.06.
In the case of AAGCTGAGCG, the switch fluorescence ratio is reported as 0.984.
AAGCTGATA gave a switch fluorescence ratio of 0.964.
With AAGCTGCAGC the switch fluorescence ratio was 0.974.
AAGCTGCGTG was tested, and the switch fluorescence ratio was 1.01.
AAGCTGGCAT showed a switch fluorescence ratio of 0.967.
For AAGCTGTTGA, the switch fluorescence ratio was 1.01.
AAGCTGTTGG showed a switch fluorescence ratio of 0.954.
For AAGCTTAACG, the switch fluorescence ratio was 1.01.
AAGCTTCAAT gave a switch fluorescence ratio of 1.01.
AAGCTTTTTG gave a switch fluorescence ratio of 1.01.
AAGGAACTAG was tested, and the switch fluorescence ratio was 1.02.
With AAGGAATATA the switch fluorescence ratio was 1.07.
Sequence AAGGACAGTT has a switch fluorescence ratio of 1.
AAGGACGATG gave a switch fluorescence ratio of 1.03.
Sequence AAGGACGT has a switch fluorescence ratio of 1.09.
AAGGAGGAAG was tested, and the switch fluorescence ratio was 1.
In the case of AAGGAGGTAT, the switch fluorescence ratio is reported as 1.
With AAGGATACTT the switch fluorescence ratio was 0.998.
With AAGGCTACTG the switch fluorescence ratio was 1.05.
Sequence AAGGGACCGA has a switch fluorescence ratio of 1.
In the case of AAGGGATCCA, the switch fluorescence ratio is reported as 0.995.
With AAGGGATCCT the switch fluorescence ratio was 1.06.
With AAGGGGCGC the switch fluorescence ratio was 1.11.
For AAGGGGTCAA, the switch fluorescence ratio was 1.05.
AAGGGTCCTT gave a switch fluorescence ratio of 1.02.
Sequence AAGGGTGAGG has a switch fluorescence ratio of 1.
For AAGGGTTAGT, the switch fluorescence ratio was 0.988.
In the case of AAGGGTTTGG, the switch fluorescence ratio is reported as 1.04.
With AAGGTAGTCA the switch fluorescence ratio was 0.981.
With AAGGTATCCA the switch fluorescence ratio was 1.01.
AAGGTATGAG was tested, and the switch fluorescence ratio was 0.99.
Work on AAGGTCAATA yielded a switch fluorescence ratio of 1.01.
In the case of AAGGTCCCCC, the switch fluorescence ratio is reported as 1.01.
With AAGGTGCTGG the switch fluorescence ratio was 1.01.
In the case of AAGGTGTCA, the switch fluorescence ratio is reported as 1.04.
AAGGTGTGCT showed a switch fluorescence ratio of 0.998.
Sequence AAGGTGTGTC has a switch fluorescence ratio of 0.937.
With AAGGTTAACT the switch fluorescence ratio was 0.987.
Sequence AAGGTTCTCG has a switch fluorescence ratio of 0.954.
For AAGGTTGGAC, the switch fluorescence ratio was 1.06.
AAGGTTTAGG was tested, and the switch fluorescence ratio was 0.992.
With AAGTAACGGG the switch fluorescence ratio was 1.03.
In the case of AAGTAATCTG, the switch fluorescence ratio is reported as 1.01.
AAGTACATAT showed a switch fluorescence ratio of 1.26.
AAGTACCGAT was tested, and the switch fluorescence ratio was 1.2.
With AAGTACGTCG the switch fluorescence ratio was 0.984.
In the case of AAGTACTCAC, the switch fluorescence ratio is reported as 1.34.
Work on AAGTAGCCTT yielded a switch fluorescence ratio of 1.05.
For AAGTATACG, the switch fluorescence ratio was 1.03.
AAGTATACT showed a switch fluorescence ratio of 1.04.
In the case of AAGTCAATCA, the switch fluorescence ratio is reported as 0.988.
Work on AAGTCCAGAG yielded a switch fluorescence ratio of 1.03.
For AAGTCCCGGT, the switch fluorescence ratio was 1.
AAGTCCGCGC was tested, and the switch fluorescence ratio was 2.58.
AAGTCCGGG was tested, and the switch fluorescence ratio was 0.997.
For AAGTCGCGGC, the switch fluorescence ratio was 0.982.
AAGTCGGATT gave a switch fluorescence ratio of 0.941.
Work on AAGTCGGTAA yielded a switch fluorescence ratio of 0.994.
For AAGTCGGTGC, the switch fluorescence ratio was 1.07.
Work on AAGTCGTACT yielded a switch fluorescence ratio of 1.03.
Work on AAGTCTGCGT yielded a switch fluorescence ratio of 0.976.
AAGTCTTGGA showed a switch fluorescence ratio of 0.996.
In the case of AAGTGCATGT, the switch fluorescence ratio is reported as 1.06.
Sequence AAGTGGGATA has a switch fluorescence ratio of 0.98.
Work on AAGTGGGTG yielded a switch fluorescence ratio of 0.995.
In the case of AAGTGTCCAT, the switch fluorescence ratio is reported as 0.968.
AAGTTAAAGC was tested, and the switch fluorescence ratio was 1.09.
AAGTTAGAGC showed a switch fluorescence ratio of 0.99.
AAGTTATAGC showed a switch fluorescence ratio of 0.994.
AAGTTTATGT was tested, and the switch fluorescence ratio was 1.
With AAGTTTTGTC the switch fluorescence ratio was 1.07.
AATAAAAGG gave a switch fluorescence ratio of 0.981.
In the case of AATAAGATGG, the switch fluorescence ratio is reported as 1.01.
Sequence AATAATGGTA has a switch fluorescence ratio of 0.995.
For AATACAAGT, the switch fluorescence ratio was 1.
For AATACATCAA, the switch fluorescence ratio was 1.02.
AATACCGCGG gave a switch fluorescence ratio of 0.953.
AATACGCGCT gave a switch fluorescence ratio of 1.01.

— the supplement of paper PMC10126150
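Also: ATP exposure 15 min at 22 °C before imaging.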
